Reference: PubChem BioAssay AID504339 (National Center for Advancing Translational Sciences (NCATS), 2011)
Hit rate of the full screen: of about 390,000 compounds, about 17,000 (4.4%) were called active. Inconclusive results, whose numbers are uncertain, are shown with a selection of clear calls. Calls follow the shape of the dose curve; as a rule, active = well fitted inhibition curve with a large enough effect; inconclusive = small, poorly fitted or top-dose-only effect; inactive = no such curve, though single readings can be large or run the other way. Where the call is inconclusive, the potency comes from a doubtful curve fit.

Each compound was assayed against Lysine-specific demethylase 4A (Homo sapiens) (UniProt O75164) (assay: qHTS Assay for Inhibitors of JMJD2A-Tudor Domain). Conditions: AlphaScreen JMJD2A-Tudor / H3K4me3 peptide binding; series mostly up to 114 µM.
UniProt O75164, sequence (O75164 whole entry, looked up, the tested form may be a part): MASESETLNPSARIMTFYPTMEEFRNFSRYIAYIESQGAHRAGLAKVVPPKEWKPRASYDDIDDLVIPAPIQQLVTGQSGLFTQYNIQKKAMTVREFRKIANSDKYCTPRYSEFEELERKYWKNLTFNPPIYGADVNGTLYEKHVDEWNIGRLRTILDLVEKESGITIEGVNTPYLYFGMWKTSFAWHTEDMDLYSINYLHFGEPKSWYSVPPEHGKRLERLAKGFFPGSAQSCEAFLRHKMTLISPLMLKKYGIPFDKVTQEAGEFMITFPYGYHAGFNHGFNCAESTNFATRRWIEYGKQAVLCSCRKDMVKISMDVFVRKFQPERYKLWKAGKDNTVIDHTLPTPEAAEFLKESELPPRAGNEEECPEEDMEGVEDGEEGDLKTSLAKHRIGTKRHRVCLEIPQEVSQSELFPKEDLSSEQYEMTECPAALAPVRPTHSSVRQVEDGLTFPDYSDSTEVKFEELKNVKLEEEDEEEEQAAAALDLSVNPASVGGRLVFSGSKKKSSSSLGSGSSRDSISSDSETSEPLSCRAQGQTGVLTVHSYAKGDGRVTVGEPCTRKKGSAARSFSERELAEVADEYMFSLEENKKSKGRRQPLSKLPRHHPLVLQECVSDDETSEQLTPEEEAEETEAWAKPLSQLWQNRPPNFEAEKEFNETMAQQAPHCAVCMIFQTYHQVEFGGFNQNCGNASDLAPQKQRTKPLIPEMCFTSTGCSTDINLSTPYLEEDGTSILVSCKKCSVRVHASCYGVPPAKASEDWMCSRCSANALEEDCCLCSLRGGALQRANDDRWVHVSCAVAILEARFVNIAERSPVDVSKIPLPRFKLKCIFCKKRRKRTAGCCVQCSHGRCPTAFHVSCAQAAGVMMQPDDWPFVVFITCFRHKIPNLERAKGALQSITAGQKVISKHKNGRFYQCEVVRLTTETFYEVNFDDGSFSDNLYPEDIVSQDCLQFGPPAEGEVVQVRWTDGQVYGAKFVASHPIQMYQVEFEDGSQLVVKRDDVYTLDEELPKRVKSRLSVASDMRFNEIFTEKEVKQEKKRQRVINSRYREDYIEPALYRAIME
Also: nearly all actives have a fitted effect of over 50% in size.
Potency is read from the fitted curve at half-maximal effect; tags tell the direction and shape of the fitted curve.

| Structure (SMILES) | Potency |
| --- | --- |
| COc1ccc(N2CCN(c3oc(-c4ccccc4OC)nc3C#N)CC2)cc1 | active: 12.6 µM |
| COc1ccc(OC)c(C2CC(=O)Nc3cc(OC)c(OC)c(OC)c32)c1 (stereo not drawn) | inconclusive: 89.1 µM [inhibitor, single point] |
| O=C(Nc1cccc(-n2cnnn2)c1)c1cccs1 | inconclusive: 50.1 µM [inhibitor, partial curve] |
| Cc1ccccc1C1c2[nH]c3ccccc3c2CCN1Cc1cccn1-c1ncccn1 (stereo not drawn) | inconclusive: 50.1 µM [inhibitor, partial curve] |
| COc1nc(/C(N)=N/O)nc(N2CCCCC2)n1 | inconclusive: 79.4 µM [inhibitor, partial curve] |
| O=C(O)c1cccc(Cn2c(Cl)c(/C=N/NC(=O)c3cc4ccccc4cc3O)sc2=O)c1 | active: 79.4 µM |
| CCN(CC)c1ccc(NC(=O)c2ccc(=O)[nH]c2)cc1S(=O)(=O)Nc1ccccc1OC | inconclusive: 56.2 µM [inhibitor, partial curve] |
| c1ccc(C(=NNc2nc3ccccc3s2)c2ccccn2)cc1 | active: 31.6 µM |
| CCC(c1ccc(O)c(O)c1)C(CC)c1ccc(O)c(O)c1 (stereo not drawn) | active: 79.4 µM |
| COC(=O)[C@@]1(Cc2ccc(OC)cc2)[C@H]2c3cc(C(=O)N4CCCC4)n(CCO)c3C[C@H]2CN1C(=O)c1ccccc1 | inactive |
| COc1cccc(C(=O)N2CCC(N3CC(C)OC(C)C3)CC2)c1 (stereo not drawn) | active: 6.31 µM |
| Cc1cc(C)c2sc(N(CCN(C)C)C(=O)CCS(=O)(=O)c3ccccc3)nc2c1 | inconclusive: 50.1 µM [inhibitor, partial curve] |
| COc1cccc(CN2CCC(C(=O)N3CCN(Cc4ccc5c(c4)OCO5)CC3)CC2)c1 | active: 0.891 µM |
| C=CC[n+]1c(-c2ccc(OC)c(OC)c2)csc1NNC(=O)Nc1ccccc1 | inconclusive: 44.7 µM [inhibitor, partial curve] |
| Oc1cccc(/C=N/NC(=S)NCCN2CCOCC2)c1O | active: 22.4 µM |
| O=C(O)c1ccc(N2C(=O)CC(N3C(=O)/C(=C/c4ccc(Cl)cc4)SC3=S)C2=O)cc1 (stereo not drawn) | inconclusive: 31.6 µM [inhibitor, partial curve] |
| O=C(Nc1ccc(F)cc1)c1cccc(N2C(=O)C3C4CCC(C4)C3C2=O)c1 (stereo not drawn) | inactive |
| Cc1cc2n(n1)C(c1ccc(N(C)C)cc1)Nc1ccccc1-2 (stereo not drawn) | active: 44.7 µM |
| CC(=O)Nc1ccc(N=Nc2ccccc2)cc1[N+](=O)[O-] | inconclusive: 10 µM [inhibitor, full curve] |
| CC(C)C1CC(CCN)(Cc2ccccc2)CCO1 (stereo not drawn) | inactive |
| CCOCCCNC(=S)N1CCN(CC)CC1 | active: 25.1 µM |
| Cn1c(CNc2nc(-c3ccccc3)cs2)nnc1SCC(=O)c1ccccc1 | inconclusive: 89.1 µM [inhibitor, partial curve] |
| N#Cc1nc(COc2ccc(F)cc2)oc1NCCCn1ccnc1 | inconclusive: 56.2 µM [inhibitor, partial curve] |
| CCOC(=O)CSc1c(-c2ccccc2)c2cc(Cl)ccc2[nH]c1=O | inactive |

| Structure (SMILES) | Potency |
| --- | --- |
| CCCn1c(=N)n(CC(O)c2ccco2)c2ccccc21 (stereo not drawn) | inactive |
| O=C(CN1CCN(c2ccc(O)cc2)CC1)NC(c1ccccc1)c1ccccc1 | active: 50.1 µM |
| COc1cc([N+](=O)[O-])ccc1NC(=O)CSc1nncn1-c1cccnc1 | inconclusive: 79.4 µM [inhibitor, partial curve] |
| COc1cc2nc(N3CCNCC3)nc(N)c2cc1OC | inconclusive: 4.47 µM [inhibitor, partial curve, poor fit] |
| CCc1ccc(CN(C)CC(=O)Nc2ccccc2[N+](=O)[O-])cc1 | inconclusive: 63.1 µM [inhibitor, single point] |
| COC(=O)c1c(C)c2c(C)cc3ccccn3c-2c1C(=O)OC | inconclusive: 35.5 µM [inhibitor, partial curve] |
| O=C(Cn1nc(C(F)(F)F)c2c1CCCC2)Nc1ccc(Cl)cc1 | inactive |
| O=C(CCNc1ccc(Cc2ccncc2)cc1)c1ccc([N+](=O)[O-])cc1 | active: 22.4 µM |
| CCSc1nc2sc3c(c2c(=O)[nH]1)CCc1ccccc1-3 | inactive |
| O=C1CCC(=O)N1c1nc2n(n1)C(c1ccccc1)C=C(c1ccc(Br)cc1)N2 (stereo not drawn) | inconclusive: 79.4 µM [inhibitor, partial curve] |
| CCOc1ccc(CNC(=O)Cn2c(=O)c3cccn3c3ccccc32)cc1 | inconclusive: 70.8 µM [inhibitor, partial curve, poor fit] |
| CCCN1CCN(CCCNC(=O)c2c(C)nn(-c3ccc(F)cc3)c2-n2cccc2)CC1 | inactive |
| O=C1CCCC/C1=C\Nc1ccccc1C(=O)O | inconclusive: 56.2 µM [inhibitor, partial curve] |
| N#Cc1cc([N+](=O)[O-])ccc1N1CCCC1 | inconclusive: 25.1 µM [inhibitor, single point] |
| COc1ccc(CNS(=O)(=O)c2ccc(C)cc2)cc1 | inactive |
| COc1c(/C=N/Nc2nc(N3CCCCC3)nc(N3CCCCC3)n2)cccc1[N+](=O)[O-] | inconclusive: 44.7 µM [inhibitor, partial curve] |
| CCN(CC)CCN1c2ccccc2Sc2ccccc21 | active: 2.82 µM |
| OC1CCN(c2cc(-c3ccccc3)nc3cc(-c4ccc(F)cc4)nn23)CC1 | inactive |
| CC(C)Oc1ccccc1OCCN(C)C | active: 31.6 µM |
| CCCCN1C(=O)/C(=c2\sc3nc(=O)c(-c4ccccc4)nn3c2=O)c2ccccc21 | inconclusive: 50.1 µM [inhibitor, partial curve] |
| CCc1ccc(C(=O)NC2=NC(c3ccccc3F)CC(=O)N2)cc1 (stereo not drawn) | inactive |
| c1ccc(COC2CCCN(Cc3nc(-c4cccs4)no3)C2)nc1 (stereo not drawn) | inconclusive: 25.1 µM [inhibitor, partial curve] |
| Cc1cc([N+](=O)[O-])c2[nH]c(C(=O)N/N=C/c3ccccc3C(=O)O)c(-c3ccccc3)c2c1 | inconclusive: 56.2 µM [inhibitor, partial curve] |
| C/C(=N\Nc1ccc(C)c(Cl)c1)c1ccncc1 | inconclusive: 56.2 µM [inhibitor, partial curve, poor fit] |
